Laboratory results as given in the GPR68 mutational scans of Howard et al. (2025).
Scores with a large standard error are left out. Two further conditions of the source, in which the scores hardly spread, are not listed. Names with del lack the residues named; names with ins carry added residues between the positions named. For part of these data: The concentration of ogerin is not given here.

B1: GPR68, Q15743 (parent)
chain: MGNITADNSSMSCTIDHTIHQTLAPVVYVTVLVVGFPANCLSLYFGYLQIKARNELGVYLCNLTVADLFYICSLPFWLQYVLQHDNWSHGDLSCQVCGILLYENIYISVGFLCCISVDRYLAVAHPFRFHQFRTLKAAVGVSVVIWAKELLTSIYFLMHEEVIEDENQHRVCFEHYPIQAWQRAINYYRFLVGFLFPICLLLASYQGILRAVRRSHGTQKSRKDQIQRLVLSTVVIFLACFLPYHVLLLVRSVWEASCDFAKGVFNAYHFSLLLTSFNCVADPVLYCFVSETTHRDLARLRGACLAFLTCSRTGRAREAYPLGAPEASGKSGAQGEEPELLTKLHPAFQTPNSPGSGGFPTGRLA

What was measured:
[1] = variants of: B1; assay: cAMP reporter score (Enrich2 score, wild type = 0); higher = more signal; HEK293T, FACS bins
[2] = variants of: B1; assay: surface expression score (Enrich2 score, wild type = 0); higher = more signal; HEK293T, FACS bins

Row | Variant | cAMP reporter score ([1]; pH 5.5) | cAMP reporter score ([1]; pH 6) | cAMP reporter score ([1]; pH 6, modulator: ogerin) | cAMP reporter score ([1]; pH 6.5, modulator: ogerin) | surface expression score [2]
1 | A316_R317insG | 0.638 | -0.33 | 0.444 | 0.432 | 0.047
2 | R317_E318insG | 0.735 | 0.577 | 0.603 | 0.317 | 0.537
3 | E318_A319insGS | 0.138 | 0.738 | 1.01 | 0.456 | 0.313
4 | E318del | 0.621 | 0.091 | 0.518 | -0.5 | 0.278
5 | A319_P321del | 1.12 | – | 2.37 | 1.64 | 1.62
6 | Y320del | -0.08 | – | -0.073 | 0.79 | 0.774
7 | P321_G323del | -0.939 | 0.273 | -0.292 | – | –
8 | L322_G323del | -0.68 | 1.23 | -0.935 | -0.166 | -0.125
9 | L322_G323insGSG | 0.994 | 0.828 | 1.03 | 1.57 | 0.675
10 | P325_E326insG | 0.487 | -0.142 | 1.39 | 1.05 | 0.834
11 | E326A | -0.378 | 0.514 | -0.138 | 0.359 | -0.332
12 | E326C | 1.18 | 0.994 | 0.931 | 1.48 | 0.281
13 | E326D | 0.775 | -0.125 | 1.29 | 1.48 | –
14 | E326F | 0.106 | -1.22 | 0.153 | 0.582 | -0.966
15 | E326G | 2.12 | 1.09 | 1.53 | 1.4 | 1.42
16 | E326H | 0.283 | -0.133 | 0.492 | 0.205 | -0.658
17 | E326I | 1.41 | – | 1.46 | 1.05 | 1.94
18 | E326K | 0.489 | 0.661 | 0.65 | -0.227 | 0.533
19 | E326L | 1.17 | 0.403 | 0.614 | 0.889 | 0.957
20 | E326M | -0.83 | -1.43 | -2.21 | -0.749 | –
21 | E326N | 0.603 | -0.219 | 0.265 | -0.508 | 0.295

Row | Variant | cAMP reporter score ([1]; pH 5.5) | cAMP reporter score ([1]; pH 6) | cAMP reporter score ([1]; pH 6, modulator: ogerin) | cAMP reporter score ([1]; pH 6.5, modulator: ogerin) | surface expression score [2]
22 | E326P | 0.179 | 0.225 | 0.725 | 1.13 | -0.031
23 | E326Q | 0.7 | -0.118 | 1.2 | 0.737 | 0.711
24 | E326R | 1.07 | 1.31 | 1.36 | 1.66 | 1.72
25 | E326T | 0.69 | -0.137 | 0.699 | 0.545 | 0.397
26 | E326V | 0.744 | – | 0.482 | 1.07 | 0.292
27 | E326W | 0.911 | 0.427 | 1.01 | 1.2 | -0.144
28 | E326Y | 0.557 | 0.289 | 0.366 | 0.132 | 0.375
29 | E326_S328del | 0.276 | 0.137 | 0.841 | 0.092 | -0.223
30 | E326del | 1.18 | 0.113 | 1.56 | – | 0.732
31 | S328A | 0.239 | – | 0.707 | – | 0.497
32 | S328C | 1.31 | – | 0.755 | 0.621 | 1.33
33 | S328D | 0.616 | -0.286 | 0.576 | 0.396 | 0.227
34 | S328E | 1.68 | 0.006 | 1.15 | 0.856 | 1.18
35 | S328F | -0.097 | 0.344 | -0.215 | -0.09 | 0.026
36 | S328G | 0.571 | 0.351 | 0.963 | 1 | 0.348
37 | S328H | 0.055 | 0.667 | 0.425 | – | 1.41
38 | S328I | 2.84 | 1.2 | 2.12 | 1.53 | 0.977
39 | S328K | 1.95 | 1.03 | 2.27 | 1.71 | 0.738
40 | S328L | 0.391 | 0.324 | 0.646 | -0.149 | -0.118
41 | S328M | 0.163 | 0.158 | 0.142 | 0.504 | 0.003
42 | S328N | 1.33 | 1.2 | 1.04 | 0.72 | 1.06

Row | Variant | cAMP reporter score ([1]; pH 5.5) | cAMP reporter score ([1]; pH 6) | cAMP reporter score ([1]; pH 6, modulator: ogerin) | cAMP reporter score ([1]; pH 6.5, modulator: ogerin) | surface expression score [2]
43 | S328P | 0.547 | 1.3 | 0.883 | 0.915 | 0.109
44 | S328Q | 0.745 | -0.002 | 0.988 | -0.041 | 0.445
45 | S328R | 0.224 | -0.514 | 0.825 | 0.745 | 0.461
46 | S328T | -0.09 | -0.319 | -0.078 | 0.407 | 0.883
47 | S328V | 0.72 | 1.75 | 1.02 | 1.76 | 1.38
48 | S328W | 2.06 | -0.064 | 1.39 | 0.672 | 0.038
49 | S328Y | -0.159 | -0.638 | -0.568 | -0.003 | -0.379
50 | S328_G329insG | 1.31 | -0.367 | 1.39 | 1.46 | 1.31
51 | S328_G329insGSG | 0.378 | 0.094 | 0.291 | 0.67 | 0.585
52 | S328_K330del | 1.01 | 0.031 | 0.902 | 0.099 | 0.986
53 | K330_S331insGS | 0.643 | -0.242 | 1.74 | 0.771 | 0.814
54 | K330del | 0.196 | 0.256 | -0.066 | – | 2.31
55 | S331_G332insGSG | 2.04 | 1.84 | 1.74 | 2.51 | 1.42
56 | A333_Q334del | -0.334 | -0.396 | 0.07 | -0.212 | -0.341
57 | Q334_G335insG | 0.741 | 1.2 | 0.487 | 0.259 | 0.938
58 | G335A | 1.02 | -0.391 | 0.843 | 0.116 | 0.657
59 | G335C | -0.456 | 0.203 | -0.296 | -0.045 | -0.342
60 | G335D | 0.4 | 0.624 | 0.541 | 1.65 | 1.11
61 | G335E | -0.048 | -0.113 | -0.179 | 0.134 | 0.269
62 | G335F | 0.271 | 0.975 | 0.884 | 0.017 | –
63 | G335H | -0.608 | -1.48 | -1.07 | -1.12 | -0.884
